This is an account of results in patent US20250222125A1, “Anti-FGFR2b Antibodies, Conjugates and Methods of Use” (BeiGene, Ltd., priority 2024, published 2025).

The data set in a line: Corneal dystrophy / corneal thickness in HSC-39 tumor-bearing mice. The settings on record: i.v.; BGA3457 10 mg/kg Q2W×2, BGA1421 10 mg/kg BIW×8; H&E. As to the method: HSC-39 cells were inoculated in the right flank by subcutaneous injection of 5.0×10^6 cells with matrigel (1:1 v/v ratio). Tumor volume was calculated using the formula: V=0.5×(a×b^2) where a and b are the long and short diameters of the tumor, respectively. When tumor volume reached approximately 200 mm^3 in size, mice were randomized into each group. Animals were intravenously administered vehicle, BGA3457 (10 mg/kg, Q2W×2), or BGA1421 (10 mg/kg, BIW×8). At the endpoint, mice were euthanized using carbon dioxide and eyes were collected and fixed in Davidson solution (95% ethanol/formaldehyde/acetic acid/distilled water: 30 mL/20 mL/10 mL/20 mL), then transferred into 75% ethanol 24 hours later. Corneal abnormalities were analyzed by H&E staining. Mouse corneal thickness was measured by Imagescope software (Leica Biosystems). The differences between the mean values of data for comparing groups were analyzed for significance using appropriate analysis by GraphPad Prism (GraphPad Software, Inc.). p<0.05 is considered to be statistically significant.

Consider “BGA1421: comparator antibody bemarituzumab, un-conjugated; HC SEQ ID NO: 35, LC SEQ ID NO: 36 [reference compound]”, for which the “corneal thickness compared to vehicle” value was “significantly thinned the cornea”.
